Z-score data for 112 compounds are collected here from PubChem BioAssay AID488969 (Vanderbilt High Throughput Screening Facility, 2010).

Whole data set: some 110,000 compounds, median “z-score” near -0.1, cut for the highest 2% near 2. Some of the results follow. The source made the active and inactive calls.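 Rule for the calls: active = z-score in the third read window above 3 or below -3; inactive = the rest.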

This test concerns the target Metabotropic glutamate receptor 8 (Rattus norvegicus) (UniProt P70579). The test is described as follows: mGluR8 Gi/Go-coupled signaling modulation – cell-based, rat, thallium flux, HTS, primary screen (AID 488969). Particulars: HEK293 rat mGluR8, GIRK (G protein-gated inwardly rectifying potassium channel) thallium flux, FluoZin2; at 10 µM; stronger effect = higher value; submaximal glutamate (EC20) added with thallium.
Chain of UniProt P70579 (P70579 whole entry, looked up): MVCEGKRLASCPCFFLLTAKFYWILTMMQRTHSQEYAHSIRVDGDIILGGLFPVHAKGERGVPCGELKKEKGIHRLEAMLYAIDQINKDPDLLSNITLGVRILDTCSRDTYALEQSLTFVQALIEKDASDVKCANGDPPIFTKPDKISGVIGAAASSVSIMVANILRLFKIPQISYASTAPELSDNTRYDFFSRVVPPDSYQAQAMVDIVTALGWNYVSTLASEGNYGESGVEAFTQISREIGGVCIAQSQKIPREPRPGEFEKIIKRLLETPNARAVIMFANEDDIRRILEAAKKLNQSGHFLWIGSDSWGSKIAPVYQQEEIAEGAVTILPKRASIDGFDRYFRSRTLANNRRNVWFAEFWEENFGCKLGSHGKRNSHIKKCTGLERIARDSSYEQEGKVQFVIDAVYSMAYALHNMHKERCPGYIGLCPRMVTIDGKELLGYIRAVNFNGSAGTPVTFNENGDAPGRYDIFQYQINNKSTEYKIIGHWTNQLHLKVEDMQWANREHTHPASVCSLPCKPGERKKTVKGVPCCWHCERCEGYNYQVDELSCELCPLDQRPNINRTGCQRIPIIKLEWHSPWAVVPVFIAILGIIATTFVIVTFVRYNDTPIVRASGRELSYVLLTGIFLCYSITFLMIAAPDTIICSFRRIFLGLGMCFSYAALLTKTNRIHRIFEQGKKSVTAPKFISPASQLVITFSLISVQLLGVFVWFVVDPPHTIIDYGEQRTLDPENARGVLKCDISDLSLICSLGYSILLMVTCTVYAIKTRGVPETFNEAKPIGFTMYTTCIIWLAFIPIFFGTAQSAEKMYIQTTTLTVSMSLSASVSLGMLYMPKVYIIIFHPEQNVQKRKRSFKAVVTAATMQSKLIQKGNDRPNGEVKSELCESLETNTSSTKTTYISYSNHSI
Compound `Cn1cc(C(=O)c2cccc(Cl)c2Cl)cc1C(=O)O` registered a z-score of -0.377. Take `CCOc1ccc(NC(=O)c2ccccc2OCC(=O)c2ccccc2)cc1`: the z-score amounted to 0.143. Turning to `CCN(CC)CCCN(Cc1cc2ccc(C)c(C)c2[nH]c1=O)C(=O)NC1CCCCC1`, the z-score is -0.0801.

With `O=C(CSc1nnc(-c2ccco2)n1-c1ccccc1)N1CCN(C(=O)c2ccco2)CC1`, the z-score is -1.36. In the case of `CC1CN(S(=O)(=O)c2cccc3nsnc23)CC(C)O1` (configuration not stated), the z-score turned out to be 0.784. For the compound `O=C(CCS(=O)(=O)c1ccc(Cl)cc1)NCCN1C(=O)S/C(=C\c2ccccc2F)C1=O`, the z-score is -0.162. `Cc1ccc(C)c(NS(=O)(=O)c2ccc(OCC(=O)N3CCCC3)cc2)c1` displayed a z-score of -0.386. `Cc1ccc(-n2c(SCC(=O)Nc3cccc(S(=O)(=O)NC4=NCCCCC4)c3)nc3ccccc3c2=O)cc1`: the z-score was -0.48. For `C=CCNC(=O)c1ccc(C)cc1Cl`, the z-score is 0.255. As for `Cc1cccc2sc(NC(=O)c3ccc(Cl)s3)nc12`, the z-score turned out to be 1.31.

As for `COC(=O)c1ccc(Oc2ccc3nnc(C)n3n2)cc1`, the z-score is -0.431.

`Cc1cc(C)c(C#N)c(SCS(=O)Cc2ccccc2)n1` (configuration not stated): the z-score is -0.254. Compound `O=C(Nc1ccccc1N1CCOCC1)c1ccc(Br)o1` registered a z-score of 0.135. In the case of `COc1ccc(/C=C2/Sc3ccc(C(=O)N4CCc5ccccc5C4)cc3NC2=O)cc1`, the z-score was -0.000126. The result for `CC1(C)CCC(=O)N(c2ccccc2)C1=O` reads -0.37. `O=C(/C=C/c1c(Cl)cccc1Cl)n1cccn1` displayed a z-score of -0.0919.

`Cc1cc(NC(=O)CSc2nc3ccccc3c(=O)n2CCCC(=O)NCc2ccccc2)n[nH]1` displayed a z-score of -0.712.

Compound `O=C(c1ccc(Cl)cc1Cl)c1ncc(C(F)(F)F)cc1Cl` showed a z-score of -0.0716. `Cc1ccc(OCC(=O)N2CCN(c3ccc([N+](=O)[O-])c(N4CCOCC4)c3)CC2)cc1` yielded a z-score of -0.597. As to `CCN1CCCC1CNC(=O)c1cc2c(C)nc3ccccc3c2o1` (configuration not stated), the z-score was determined as 0.215. Consider `COc1ccc(N2C(=O)CC(NCc3ccc(F)cc3)C2=O)cc1` (configuration not stated), for which the z-score was -0.0142. Turning to `COc1cc(C(=O)NC2CC3CCCC(C2)N3CC(=O)Nc2ccccc2)cc(OC)c1OC` (configuration not stated), the z-score was -2.03.

Turning to `O=C1NC(CCc2ccccc2)C(=O)N1Cc1ccccc1Cl` (configuration not stated), the z-score is -2.13. `CC1(C)CC2(CC(c3ccccc3)Oc3cc(O)ccc32)NC(=S)N1` (configuration not stated) came in with a z-score of 0.076. `CCc1nnc(NC(=O)C2c3ccccc3Oc3ccccc32)s1` yielded a z-score of 0.0278.

`COc1ccc(NC(=S)N2CCN(C(c3ccccc3)c3ccccc3)CC2)cc1OC` gave a z-score of -0.136.

Turning to `COc1ccc(CN2C(=O)CN(C3CCCCCC3)C(=O)C2c2ccc(F)cc2)cc1` (configuration not stated), the z-score is -0.0754. `Clc1cccc2sc(N3CCCCC3)nc12`: the z-score is -1.09. As to `Cc1cn(C(=O)c2ccccc2)c(=S)n1-c1ccc(Br)cc1`, the z-score is -0.326. `Cc1nc2nc(-c3ccc(Cl)cc3)[nH]n2c(=O)c1Cc1ccccc1` yielded a z-score of -0.0342. `O=C(CCCN1C(=O)c2cccc3cccc(c23)C1=O)N1CCc2ccccc2C1` yielded a z-score of -0.445.

In the case of `O=C(NC(=S)NC(c1ccccc1)c1ccncc1)c1ccccc1` (configuration not stated), the z-score was -0.741. Compound `Cc1ccc(C)c(NC(=O)C(Sc2nnc(-c3cccs3)o2)c2ccccc2)c1` (configuration not stated) yielded a z-score of -0.472.

As for `Cc1ccccc1NC(=O)CSc1nc2ccccc2c2nc(CCn3cncc3C)nn12`, the z-score was -0.225. Compound `c1coc(CN2CCN(C(c3cccs3)c3nnnn3C3CCCC3)CC2)c1` (configuration not stated) had a z-score of -1.93. Compound `O=C(CSc1nc2ccccc2n1S(=O)(=O)c1ccccc1)N1CCCCC1` came in with a z-score of -0.275.

`O=C(Nc1ccc2oc(=O)ccc2c1)c1ccc(-c2ccc(Cl)cc2)o1` returned a z-score of -0.947.

Turning to `CCOC(=O)c1sc(NS(=O)(=O)c2ccc(NC(C)=O)cc2)nc1C`, the z-score is -0.427. `CN(CC(=O)NCC1CCCO1)S(=O)(=O)c1cc(Cl)ccc1Cl` (configuration not stated): the z-score amounted to 0.0349.

For `O=c1c2cc(Cl)ccc2[nH]c(=S)n1Cc1cccs1`, the z-score was active: 4.2.

`COc1ccc(CC(C)N2CCN(c3ccccc3)CC2)cc1OC` (configuration not stated) came in with a z-score of -0.169. `COCCCNC(=O)c1sc2ncnc(N3CCc4ccccc4C3)c2c1C` showed a z-score of -1.13. As for `Cc1ccc(C(=O)N2C(=S)C(c3ccc(F)cc3)=NC23CCN(C)CC3)cc1`, the z-score is -0.149. As for `CCOC(=O)C1CCCN(C(=O)c2sc3nc(-c4ccccc4)cn3c2C)C1` (configuration not stated), the z-score is -0.904.

`CCOC(=O)CSC(C)C(=O)Nc1nnc(C(C)C)s1` (configuration not stated) yielded a z-score of -0.394. Compound `OC(COCc1cccs1)CN1CCN(c2cccc(C(F)(F)F)c2)CC1` (configuration not stated) yielded a z-score of 1.07.

In turn, `CC(=O)Nc1ccc(S(=O)(=O)Nc2c(C)nn(-c3ccccc3)c2C)cc1` had a z-score of -0.72. `Cc1ccc(-c2ccccc2)n1-c1ccc(C(=O)O)cc1` displayed a z-score of 0.116.

On to `Cc1cc(C)cc(NC(=O)CC23CC4CC(C2)CC(n2nnc(C)n2)(C4)C3)c1`, for which the z-score was -1.43.

As for `Cc1ccc(-n2c(C)nnc2SCC(=O)Nc2ccccc2)cc1`, the z-score came out at 0.00869. As for `Cc1cc(C(=O)Nc2ccc(S(=O)(=O)Nc3onc(C)c3C)cc2)cs1`, the figure is 0.223. With `COC(=O)c1ccc(NC(=O)c2ccc(F)cc2)o1`, the z-score is 0.176. Regarding `O=C(Cn1ccc([N+](=O)[O-])n1)Nc1nccs1`, the z-score is -0.0401. Compound `COc1ccc(-c2noc(CSc3nc(N)c(-c4ccccc4)c(=O)[nH]3)n2)cc1` yielded a z-score of -0.223.

In turn, `Cc1scc(-c2n[nH]c(=S)n2Cc2ccccc2)c1C` returned a z-score of 0.854. The result for `Nc1nc(-c2ccccc2)cc(N2CCCCC2)n1` reads 0.464; that for `C(=C\c1ccccc1)/CSc1nnc(-c2ccccn2)n1Cc1ccco1`, -1.42. On to `CC(C)P(=O)(c1cccc(C(=O)O)c1)C(C)C`, for which the z-score was -0.0351. As for `Nc1nnc(CCC2CCCCC2)s1`, the figure is 0.128.

The compound `CCOC(=O)/C(=C/c1ccc(Cl)cc1)NC(=O)c1ccco1` registered a z-score of -0.468. Compound `O=S(=O)(NCCNS(=O)(=O)c1ccc(F)cc1)c1ccc(F)cc1` registered a z-score of -0.266. `Cc1c(C(=O)N2CCC(C)CC2)sc2ncnc(N3CCN(c4ccccc4)CC3)c12` registered a z-score of -0.332.

With `Cc1ccccc1Oc1nnc(-c2cccs2)c2ccccc12`, the z-score is -0.216. As for `Cc1ccc(N=c2c([N+](=O)[O-])nn(-c3ccccc3)n2O)c(C)c1`, the figure is 0.0179; as for `Cc1cc(NCCO)nc(N2CCOCC2)n1`, -0.11; as for `CCOC(=O)c1csc(NC(=O)CSc2nnnn2-c2cccc(OC)c2)n1`, -0.239.

Compound `C/C(=N\NC(=O)c1ccccc1)c1ccc(-n2ccnc2)cc1` returned a z-score of 2.25. Compound `CC1(C(=O)CSc2ncn[nH]2)CCC(=O)O1` (configuration not stated) yielded a z-score of -0.24. The compound `CCNC(=S)NNC(=O)c1csc(CC)c1` yielded a z-score of -0.163. In turn, `Cc1ccccc1N(CC(=O)N1CCN(c2ccccc2)CC1)S(C)(=O)=O` returned a z-score of -0.00111. `COc1cc(CC(=O)Oc2ccc3c(c2)OCO3)cc(OC)c1OC` came in with a z-score of 0.612. Compound `O=C(Nc1nn(Cc2ccc(Cl)cc2)cc1Br)c1ccc(COc2ccccc2Cl)o1` had a z-score of -0.058.

Regarding `CCOC(=O)Cc1c(Sc2ccccc2)c2cc(C)ccc2n1C`, the z-score is -0.169. Compound `COc1ccc(N=C2C(=O)Nc3ccccc32)cc1` registered a z-score of -0.886.

In the case of `CC(=O)Nc1ccc(OCC(O)CNC2CCCC2)cc1` (configuration not stated), the z-score was -0.0845. The result for `Cc1ccc(N(CC(=O)NC2CCCC2)C(=O)c2c(C)noc2C)cc1C` reads -0.905; that for `CC(c1ccccn1)N(CCN(C)C)C(=S)Nc1cccc(F)c1` (configuration not stated), -0.231. On to `Nc1c(N(C(=O)Nc2ccc(Cl)c(Cl)c2)C2CCCC2)c(=O)[nH]c(=O)n1Cc1ccccc1`, for which the z-score is 0.249. Take `CCOc1ccc(NC(=S)N/N=C(\C)Cc2ccc(OC)cc2)cc1`: the z-score turned out to be 1.35.

`CCCCc1cc(=O)oc2cc(C)cc(OC(C)C(=O)O)c12` (configuration not stated) registered a z-score of -0.37. For the compound `COc1ccc(-c2cc(=O)[nH][nH]2)cc1OC`, the z-score was -0.295. `CC(=O)C1C(c2ccc(Cl)cc2)NC(=O)NC1(O)C(F)(F)F` (configuration not stated) yielded a z-score of -0.503. `C/C(=N/Oc1nc(C)cc(C)n1)c1ccccc1` came in with a z-score of -0.437.

Turning to `Cc1ccc2cc(C#N)c(N3CCCN(S(=O)(=O)c4ccc(F)cc4)CC3)nc2c1`, the z-score was found to be 0.227. Regarding `O=C(COC(=O)c1ccccc1Nc1ccccc1)NCc1ccccc1`, the z-score was -0.246. With `S=C(Nc1ccc(Cl)cc1)N(CCCN1CCOCC1)Cc1ccco1`, the z-score is -0.557. Consider `CCOC(=O)CC(NC(=O)c1ccco1)c1ccc(OC)cc1` (configuration not stated), for which the z-score was -0.109. Turning to `CCCOC(=O)c1cccc(NC(=O)C(C)(C)C)c1`, the z-score worked out at 0.872. In turn, `COc1ccc(CCn2c(-c3cc([N+](=O)[O-])cc([N+](=O)[O-])c3)nc3nc4ccccc4nc32)cc1OC` returned a z-score of -0.213.

With `COc1ccc(Cn2cc3c(-c4ccc(F)cc4)nnc-3c3cc(OC)c(OC)cc32)cc1`, the z-score came to 0.539. Turning to `FC(F)(F)c1cc(Sc2ccccc2)nc(-c2ccccn2)n1`, the z-score was -0.349.

Turning to `CCc1ccc(CSc2nccn2-c2ccccc2)cc1`, the z-score is -0.445. Compound `CCOC(=O)C1=C(O)CSC1=Nc1cccc(Cl)c1` yielded a z-score of -2.45. `CCCCNC(=O)Nc1cc(C(F)(F)F)c[nH]c1=O`: the z-score was 0.793.

As to `COc1cc(NS(=O)(=O)c2ccc(NC(=O)NC3CCCCC3)cc2)nc(OC)n1`, the z-score was -0.233. `S=C(NCc1ccco1)N/N=C/c1ccccc1Cl` registered a z-score of 2.22. On to `COc1ccc(CN(C(=S)Nc2ccccc2)C2CC(=O)N(c3ccc(Cl)cc3)C2=O)cc1` (configuration not stated), for which the z-score is 0.0406. Consider `COc1ccc(/C=C(\C#N)C(=O)NCCCn2ccnc2)cc1`, for which the z-score was -0.164. The result for `CCCCOC(=O)Cn1c(=O)n(CC(=O)OCCCC)c2ccccc21` reads -0.288; that for `Cc1cc([N+](=O)[O-])c(NC2CCCCC2)c([N+](=O)[O-])c1`, -0.257; that for `CCOC(=O)c1cc2occc2n1Cc1c(F)cccc1Cl`, 0.0931. `Cc1ccccc1C1CC(c2ccccc2)Nc2ncnn21` (configuration not stated) had a z-score of -0.293. `COc1ccc(CCC(C)Nc2cccc(C)c2)cc1` (configuration not stated) registered a z-score of -0.178. The result for `CCOC(=O)/C(=C/c1c2ccccc2cc2ccccc12)NC(=O)c1ccccc1` reads -0.387; that for `COc1ccccc1Nc1nc(N)nc(CSc2nccc(C)n2)n1`, 0.282. The result for `Cn1nc(-c2ccc(C(=O)Nc3cccc(Cl)c3)cc2)c2ccccc2c1=O` reads 0.274.

In the case of `COc1ccccc1OCc1nc2c3c(-c4ccccc4)c(-c4ccccc4)oc3ncn2n1`, the z-score was -0.228. The compound `COc1ccc(Cc2nn3c(Cn4nnc5ccccc54)nnc3s2)cc1` gave a z-score of -0.0414.

For the compound `O=c1c(-c2ccnn2-c2ccc(F)cc2)cnc2n1CCS2`, the z-score is -0.339. For the compound `Cc1ccc(OCc2nnc(SCC(=O)Nc3ccc4c(c3)OCCO4)n2Cc2ccco2)cc1`, the z-score is -0.271. As for `COC(=O)CN1C(=O)CSc2ncccc21`, the figure is 0.767. For `CCOc1ccc(NC(=S)N(CCCN2CCOCC2)Cc2cn(C)c3ccccc23)cc1`, the z-score is -0.232.
